Laboratory results published in PubChem BioAssay AID1476 (National Center for Advancing Translational Sciences (NCATS), 2009).
Where “and” joins values, the source holds several entries; their conditions need not be identical. Identical values can stand only once. The whole screen tested about 200,000 compounds, of which about 4,500 (2.2%) were called active. Inconclusive results, whose numbers are uncertain, are shown with a selection of clear calls. Calls come from the whole dose curve; as a rule, active = well fitted inhibition curve with a large enough effect; inconclusive = small, poorly fitted or top-dose-only effect, or effect the other way; inactive = flat fitted curve, though single readings scatter. Where the call is inconclusive, the potency comes from a doubtful curve fit.

target: Cruzipain (Trypanosoma cruzi) (UniProt P25779); assay: qHTS Assay for Promiscuous and Specific Inhibitors of Cruzain (without detergent); settings: purified cruzain, Z-FR-AMC fluorescence, no detergent; note: nearly all actives have a fitted effect of over 40% in size;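 for max response, negative = inhibition: plate controls were enzyme without inhibitor for no effect and buffer without enzyme for full effect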
Procedure, shortened: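 Purified cruzain at 1.5 nM, pre-incubated 15 min with compound at room temperature in 100 mM sodium acetate pH 5.5, 5 mM DTT, 0.00005% Triton X-100. Reaction started with 2 uM Z-FR-AMC; AMC fluorescence increase over 60 s gives rate.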
Potency is the fitted concentration of half-maximal effect; tags give direction and shape of the fitted curve.

Chain of UniProt P25779 (P25779 whole entry, looked up): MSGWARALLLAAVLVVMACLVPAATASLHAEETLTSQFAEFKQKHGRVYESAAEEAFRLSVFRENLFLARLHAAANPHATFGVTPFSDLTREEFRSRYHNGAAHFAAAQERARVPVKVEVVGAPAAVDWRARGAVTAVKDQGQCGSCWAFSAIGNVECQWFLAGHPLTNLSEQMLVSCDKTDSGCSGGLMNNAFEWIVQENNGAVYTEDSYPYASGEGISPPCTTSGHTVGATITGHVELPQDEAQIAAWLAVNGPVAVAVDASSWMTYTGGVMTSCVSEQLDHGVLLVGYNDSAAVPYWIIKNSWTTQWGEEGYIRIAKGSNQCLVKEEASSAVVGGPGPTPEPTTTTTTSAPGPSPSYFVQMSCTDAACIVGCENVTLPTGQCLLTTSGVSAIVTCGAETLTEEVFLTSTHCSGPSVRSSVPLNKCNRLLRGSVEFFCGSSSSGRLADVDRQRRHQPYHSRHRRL

Row | Compound | Potency | max response, negative = inhibition
1 | COc1ccc2[nH]c(=O)c(CN(Cc3nnnn3Cc3ccco3)C3CCCCC3)cc2c1 | active: 7.94 µM | –
2 | Cc1ccc2nc(SCC(=O)c3ccc(Cl)s3)[nH]c2c1 | inconclusive: 31.6 µM [inhibitor, single point] | –
3 | Cc1cc(C(=O)CSc2n[nH]c(-c3ccccc3F)n2)c(C)n1Cc1cccs1 | active: 15.8 µM | –
4 | N#C/C(=C(/O)COC(=O)c1ccc(C#N)cc1)c1nc2ccccc2s1 | inconclusive: 31.6 µM [inhibitor, single point] | –
5 | O=C(Cc1sc(-c2ccccc2Cl)nc1-c1ccccc1)Nc1ccccc1 | active: 12.6 µM | –
6 | CCOc1ccc(CNS(=O)(=O)c2ccc(-c3coc(C)n3)cc2)cc1 | inconclusive: 0.02 µM [activator, full curve, poor fit] | –
7 | COc1cc(NC(=O)c2cn(C3CCCC3)c(=O)c3c2c2ccccc2n3C)cc(OC)c1OC | inconclusive: 5.01 µM [activator, full curve, poor fit] | –
8 | COc1cc(NC(=O)c2ccco2)c(OC)cc1NC(=O)c1cc(OC)c(OC)c(OC)c1 | inconclusive: 25.1 µM [activator, single point] | –
9 | CCOc1ccccc1-c1nc(SCC(=O)O)n[nH]1 | inconclusive: 39.8 µM [inhibitor, single point] | –
10 | Cc1ccc(O)c(NC(=O)c2cc(-c3ccccc3O)no2)c1 | inconclusive: 39.8 µM [activator, single point] | –
11 | O=C(Nc1nc(-c2ccc(F)c(F)c2)cs1)c1cc([N+](=O)[O-])ccc1N1CCOCC1 | inconclusive: 39.8 µM [inhibitor, single point] | –
12 | COC(=O)c1c(NC(=O)CN2CCN(c3cccc(Cl)c3)CC2)sc(C)c1C | inconclusive: 31.6 µM [inhibitor, single point] | –
13 | CCOc1ccc(OCC)c(NS(=O)(=O)c2ccc(-c3coc(C)n3)cc2)c1 | inconclusive: 31.6 µM [activator, single point] | –
14 | CCOC(=O)CSc1nc2cc(C(=O)N3CCCC3)ccc2c(=O)n1Cc1ccccc1 | inconclusive: 39.8 µM [activator, single point] | –
15 | COc1ccc(S(=O)(=O)N2CCOCC2)cc1NC(=O)c1cc2c(s1)CCCC2 | inconclusive: 25.1 µM [activator, single point] | –
16 | CCN(CC)S(=O)(=O)c1ccc(Cl)c(NC(=O)COC(=O)c2cc(-c3ccccc3Cl)nc3ccccc23)c1 | active: 10 µM | –
17 | Cc1cc(Cl)ccc1NC(=S)NCCC(c1ccccc1)c1ccccc1 | inconclusive: 39.8 µM [inhibitor, single point] | –
18 | COc1cccc(CNC(=O)c2cc3c(=O)oc4ccc(C)cc4c3s2)c1 | – | inactive: 6.43%
19 | COC(=O)[C@@]1(Cc2ccc(F)cc2)[C@H]2c3cc(C(=O)N4CCCC4)n(CCO)c3C[C@H]2CN1C(=O)c1ccccc1 | inconclusive: 20 µM [activator, partial curve] | –
20 | Cc1cccc2cc(CN(Cc3cccs3)C(=S)NCC3CCCO3)c(=O)[nH]c12 (stereo not given) | – | inactive: 3.09%

Row | Compound | Potency | max response, negative = inhibition
21 | C/C(=N/NS(=O)(=O)c1ccc(Br)cc1)c1ccc(NC(=O)c2ccc(C)o2)cc1 | inconclusive: 31.6 µM [inhibitor, single point] | –
22 | CCOC(=O)N1CCN(C(=O)/C(=C/c2cccc3ccccc23)NC(=O)c2ccc(OC)c(OC)c2)CC1 | inconclusive: 20 µM [activator, partial curve] | –
23 | Brc1ccc(-c2ccc(/C=N/Nc3nc4ccccc4[nH]3)o2)cc1 | active: 7.94 µM | –
24 | Cc1cccc(N=Cc2cc3c(cc2[N+](=O)[O-])OCO3)c1 | inconclusive: 31.6 µM [inhibitor, single point] | –
25 | COCCn1c(=O)c(-c2ccc(Cl)cc2)nc2cnc(OCc3ccccc3)nc21 | – | inactive: 6.06%
26 | Cc1ccc(N(CC(=O)Nc2ccccc2-c2ccccc2)S(=O)(=O)c2ccccc2)cc1 | inconclusive: 31.6 µM [inhibitor, single point] | –
27 | CCOc1cccc(C(=O)N(Cc2ccc(CC)cc2)C2CCS(=O)(=O)C2)c1 (stereo not given) | inconclusive: 39.8 µM [activator, single point] | –
28 | Cn1c(=O)[nH]c2cc(-c3noc(-c4cccc(Cl)c4)n3)ccc21 | inconclusive: 0.158 µM [activator, single point] | –
29 | COc1ccc(/C=C/C(=O)Nc2ccccc2C(=O)O)cc1OC | – | inactive: -3.42% and inactive: -16%
30 | CCOC(=O)N1CCN(S(=O)(=O)c2cc(Br)cc3c2N(C(=O)C2CC2)CC3)CC1 | inconclusive: 39.8 µM [activator, single point] | –
31 | C[C@@H]1CC2C3CCC4=CC(=O)C=CC4(C)[C@@]3(F)[C@@H](O)CC2(C)[C@@]1(O)C(=O)CO (stereo not given in full) | – | inactive: 3.38%
32 | CCn1c2ccccc2c2cc(NC(=O)COc3ccccc3)ccc21 | inconclusive: 31.6 µM [inhibitor, single point] | –
33 | CC(C)C(C(=O)Nc1ccc(S(=O)(=O)N2CCOCC2)cc1)N1C(=O)c2ccccc2C1=O (stereo not given) | inconclusive: 39.8 µM [activator, single point] | –
34 | COc1ccccc1C(=O)Nc1cc2cc(Cl)ccc2oc1=O | inconclusive: 10 µM [inhibitor, partial curve] | –
35 | COc1ccc(-c2c3c(=O)n(C)c(=O)n(C)c3cn2-c2cc(OC)ccc2OC)cc1 | inconclusive: 39.8 µM [activator, single point] | –
36 | O=C(O)CC/C(=C\c1cc([N+](=O)[O-])ccc1Cl)c1nc2ccccc2s1 | – | inactive: 28.5%
37 | CCNc1nc(NCC)n2c(SCC(=O)Nc3ccc(C(F)(F)F)cc3[N+](=O)[O-])nnc2n1 | inconclusive: 39.8 µM [activator, single point] | –
38 | COc1ccc(S(=O)(=O)n2nc(OC(=O)c3ccco3)cc2N)cc1 | active: 20 µM | –
39 | Ic1ccc2c(c1)N(c1ccccc1)c1cc(Nc3ccc4nc5ccc(I)cc5[n+](-c5ccccc5)c4c3)ccc1N2 | active: 3.16 µM | –
40 | COc1ccc(OC)c(/C=N/Nc2nncn2/N=C/c2cc(OC)ccc2OC)c1 | inconclusive: 31.6 µM [activator, single point] | –
